PubChem BioAssay AID1460 (National Center for Advancing Translational Sciences (NCATS), 2008)
The campaign covered roughly 270,000 compounds. About 5,800 (2.1%) were called active. Inconclusive results, whose numbers are uncertain, are shown with a selection of clear calls. Calls come from the whole dose curve; as a rule, active = well fitted inhibition curve with a large enough effect; inconclusive = small, poorly fitted or top-dose-only effect; inactive = flat fitted curve, though single readings scatter. Potencies beside an inconclusive call are fits to weak or partial responses and may not hold up.

Molecular target: Microtubule-associated protein tau (Homo sapiens) (UniProt P10636)
Sequence of UniProt P10636 (P10636 whole entry, looked up): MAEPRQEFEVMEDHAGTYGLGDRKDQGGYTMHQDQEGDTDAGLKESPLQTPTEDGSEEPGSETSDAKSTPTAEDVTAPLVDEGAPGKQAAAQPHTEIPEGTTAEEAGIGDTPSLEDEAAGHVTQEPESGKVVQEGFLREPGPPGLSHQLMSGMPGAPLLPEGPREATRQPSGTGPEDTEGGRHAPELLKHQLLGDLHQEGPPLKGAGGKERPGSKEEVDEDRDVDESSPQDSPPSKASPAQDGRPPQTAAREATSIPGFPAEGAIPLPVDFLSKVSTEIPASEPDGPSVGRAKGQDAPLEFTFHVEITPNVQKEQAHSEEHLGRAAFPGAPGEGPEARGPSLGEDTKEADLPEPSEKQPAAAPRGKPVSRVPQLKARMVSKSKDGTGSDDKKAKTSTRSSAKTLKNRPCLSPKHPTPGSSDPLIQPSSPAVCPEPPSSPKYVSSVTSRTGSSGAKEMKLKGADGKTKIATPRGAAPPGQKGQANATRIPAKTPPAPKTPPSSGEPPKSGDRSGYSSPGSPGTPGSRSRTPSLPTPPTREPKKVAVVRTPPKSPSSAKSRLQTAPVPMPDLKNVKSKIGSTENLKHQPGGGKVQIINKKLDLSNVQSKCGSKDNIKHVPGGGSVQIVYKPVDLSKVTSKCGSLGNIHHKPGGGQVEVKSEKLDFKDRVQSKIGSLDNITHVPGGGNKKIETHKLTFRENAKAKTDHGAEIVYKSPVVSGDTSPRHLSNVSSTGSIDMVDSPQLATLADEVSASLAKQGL
Test: qHTS for Inhibitors of Tau Fibril Formation, Thioflavin T Binding; note: nearly all actives have a fitted effect of over 55% in size
Conditions: recombinant tau K18 P301L (four-repeat tau fragment), heparin-induced fibrillization, ThT fluorescence; series mostly up to 57.4 µM; activity, negative = inhibition: at the top concentration
How it was run: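 Heparin-induced fibrillization of the P301L-mutant K18 repeat-domain fragment of human tau was followed by ThT binding in quantitative high-throughput format.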
% is set by controls: 0 for no effect and ±100 for the full control effect; potency is the fitted concentration of half-maximal effect; tags give direction and shape of the fitted curve.

Structure (SMILES) | Potency | activity, negative = inhibition
CO/N=C/C(=N\Nc1ccc(OC)cc1)C(=O)c1ccc(OC)cc1 | inconclusive: 11.2 µM [inhibitor, partial curve] | 
CCN(CC)c1ccc(NC(=O)/C=C/c2cc(Br)ccc2OC)cc1 | inconclusive: 3.16 µM [inhibitor, full curve] | 
COc1ccc(C(=O)CSc2nc3ccc([N+](=O)[O-])cc3[nH]2)cc1 | inconclusive: 7.94 µM [inhibitor, partial curve] | 
CC(=O)N1c2c(cc(Br)cc2S(=O)(=O)N2CCN(C(=O)c3ccco3)CC2)CC1C (centres undefined) |  | inactive: -1.99%
COC(=O)c1nn(-c2ccc(F)cc2)ccc1=O |  | inactive: -6.83%
C=C(C)COc1ccc(-c2[nH]ncc2-c2ccccc2OC)c(O)c1 | inconclusive: 22.4 µM [inhibitor, partial curve] | 
CCn1c(=NC(=O)c2ccc3c(c2)OCCO3)sc2c(C)ccc(OC)c21 | inconclusive: 11.2 µM [inhibitor, partial curve, poor fit] | 
O=c1[nH]cnc2c1C(c1ccccc1[N+](=O)[O-])c1c(nc[nH]c1=O)O2 |  | inactive: -6.51%
O=C(Cn1cc(SCc2ccc(C(F)(F)F)cc2)c2ccccc21)N1CCCCCC1 | inconclusive: 22.4 µM [inhibitor, partial curve] | 
CC1(C)Cc2c(cnn2-c2ccccc2)C(=O)/C1=N\NC(=O)c1ccccc1O | inconclusive: 20 µM [inhibitor, partial curve] | 
CCOc1ccc(CCNC(=O)C2CCN(c3nn4c(=O)cc(C)nc4s3)CC2)cc1OCC | inconclusive: 5.62 µM [inhibitor, partial curve] | 
O=C(O)[C@H]1[C@H]2C[C@H]3c4[nH]c5ccccc5c4CCN3C[C@@H]2CC[C@@H]1O | inconclusive: 15.8 µM [inhibitor, partial curve] | 
O=C(NN1C(=O)/C(=C/c2cccs2)SC1=S)c1ccccc1 | inconclusive: 2 µM [inhibitor, full curve] | 
CC1(C)CC(=O)C2=C(C1)NC1=C(C(=O)c3ccccc31)C2c1ccccc1 (centres undefined) | inconclusive: 12.6 µM [inhibitor, partial curve] | 
Cc1c(-c2ccccc2)cn2c1-c1ccc(C)n1CC2 | inconclusive: 31.6 µM [inhibitor, single point] | 
CCC(Sc1nc2ccccc2c2nc(CCn3cncc3C)nn12)C(=O)Nc1cccc(OC)c1 (centres undefined) | inconclusive: 28.2 µM [inhibitor, single point] | 
Cc1ccc(SCc2cc(-c3ccc(Cl)cc3)on2)cc1 | inconclusive: 7.94 µM [inhibitor, partial curve, poor fit] | 
Nc1cc2c(cc1[N+](=O)[O-])OCCOCCOCCO2 | inconclusive: 20 µM [inhibitor, partial curve, poor fit] | 
O=C(N/N=C/c1ccc(O)cc1)c1cccc(C(F)(F)F)c1 | inconclusive: 39.8 µM [inhibitor, single point] | 
Cc1cc[n+](-c2nc3ccccc3nc2C(=C=[N-])C#N)cc1 |  | inactive: -10.4%
O=C(NNc1nc(-c2ccc(Cl)cc2)cs1)c1ccco1 | inconclusive: 39.8 µM [inhibitor, single point] | 
O=C1OCCN1C(=O)[C@H]1[C@H](c2ccc(F)cc2)C(c2ccccc2)=NN1c1ccccc1 |  | inactive: -7.97% [at 81.4 µM]

Structure (SMILES) | Potency | activity, negative = inhibition
O=C(CC(Nc1ccc(F)cc1)C(=O)OCC(=O)c1cccs1)c1ccccc1 (centres undefined) | inconclusive: 15.8 µM [inhibitor, partial curve, poor fit] | 
COC(=O)NC(c1cccc(F)c1)[C@]1(C(C)=O)CCCC1=O (some centres undefined) |  | inactive: -18% [at 11.5 µM]
COC(=O)C(CC(=O)c1ccc(Br)cc1)n1ccnc1 (centres undefined) | inconclusive: 7.94 µM [inhibitor, full curve] | 
C=C1C[C@@]23C[C@@]1(O)CC[C@@H]2[C@]12C=C[C@@H](O)[C@](C)(C(=O)O1)[C@@H]2[C@@H]3C(=O)O |  | inactive: -3.35%
Cc1ccccc1OCC(=O)N/N=C/c1cccc(Oc2ccc([N+](=O)[O-])cc2[N+](=O)[O-])c1 | inconclusive: 5.01 µM [inhibitor, partial curve] | 
S=C(NCc1ccco1)N1CCN(c2ccccc2Cl)CC1 |  | inactive: -8.82%
CCOc1ccc2nc(NC(=O)CS(=O)(=O)c3ccccc3)sc2c1 | inconclusive: 15.8 µM [inhibitor, partial curve] | 
Fc1ccc(-c2nc3nc4ccccc4nc3n2Cc2ccco2)cc1 | inconclusive: 35.5 µM [inhibitor, single point] | 
CCSC1=C(C#N)C(c2cccc(Br)c2)CC(=O)N1 (centres undefined) | inconclusive: 0.0631 µM [inhibitor, full curve, poor fit] | 
Cc1ccc(N=Nc2c(C)[nH]n(C(N)=S)c2=O)cc1C | active: 4.47 µM | 
COc1cccc(/C=N\Nc2nncc(-c3ccccc3)n2)c1 | inconclusive: 2.51 µM [inhibitor, full curve] | 
CCOC(=O)c1ccc(N2CCN(c3ccccc3F)CC2)c(NC(=O)Nc2ccc(Cl)c(Cl)c2)c1 |  | inactive: 9.95%
CC(C)Cn1c(N)c(C(=O)COC(=O)c2cnc(Cl)c(Cl)c2)c(=O)n(C)c1=O |  | inactive: -9.81%
O=C(O)/C=C/C(=O)Nc1ccc(OC(F)(F)F)cc1 |  | inactive: -5.66%
Fc1ccc(Nc2nc3ccccc3c3nncn23)c(Cl)c1 |  | inactive: -15.4%
CCN(C(=O)c1cc2cc3ccc(C)cc3nc2o1)c1ccc(OC)cc1 | inconclusive: 35.5 µM [inhibitor, partial curve] | 
CC(C)c1cc(/C=C(\C#N)C(=O)NCCCc2ccccc2)cc(C(C)C)c1O |  | inactive: -13.7%
CCOc1ccccc1N1CCN(C(=O)c2cc3c(s2)CCC3)CC1 | inconclusive: 35.5 µM [inhibitor, single point] | 
COc1ccc(CCNC(=O)c2ccc(Cn3c(=O)c4ccccc4n(Cc4cc(C)ccc4C)c3=O)cc2)cc1OC |  | inactive: -0.672%
Cc1ccc2oc(=O)c3cc(C(=O)Nc4ccc(F)cc4F)sc3c2c1 |  | inactive: 2.4%
COc1cccc(CNc2ccc(F)c(Cl)c2)c1O | inconclusive: 10 µM [inhibitor, partial curve] | 
CSc1nsc(SCC(=O)Nc2ccc(C(C)=O)cc2)n1 | inconclusive: 5.62 µM [inhibitor, partial curve] | 
